Results from a compilation of properties of binary mixtures (doi:10.1016/j.molliq.2019.111925).
Some of these densities may be calculated back from excess volumes.

Assay: xn = mol fraction of the nth substance listed
Details: 100 kPa

In the case of O + CC(=O)[O-].CC[n+]1ccn(C)c1, the mass density (333.15 K, x2 = 0) is reported as 983.2 kg/m3 and the mass density (343.15 K, x2 = 0) is reported as 977.8 kg/m3.
CC(=O)[O-].CC[n+]1ccn(C)c1 + O showed a mass density (293.15 K, x1 = 0.105) of 1078.5 kg/m3, a mass density (293.15 K, x1 = 0.4445) of 1108.5 kg/m3 and a mass density (293.15 K, x1 = 0.5602) of 1107.6 kg/m3. The mass density (293.15 K, x1 = 0.7375) was 1104.1 kg/m3, the mass density (293.15 K, x2 = 0.0174) was 1101.3 kg/m3 and the mass density (298.15 K, x1 = 0.4445) was 1105.4 kg/m3. For the same molecule, the mass density (298.15 K, x1 = 0.5602) was 1104.5 kg/m3, the mass density (298.15 K, x1 = 0.7375) was 1100.8 kg/m3 and the mass density (298.15 K, x1 = 0.8521) was 1099.4 kg/m3. The mass density (298.15 K, x1 = 1) was 1098.1 kg/m3, the mass density (298.15 K, x2 = 0.0174) was 1098.2 kg/m3 and the mass density (303.15 K, x1 = 0.105) was 1072.1 kg/m3. The mass density (303.15 K, x1 = 0.1988) was 1095.2 kg/m3, the mass density (303.15 K, x1 = 0.4445) was 1102.4 kg/m3 and the mass density (303.15 K, x1 = 0.5602) was 1101.5 kg/m3. For the same molecule, the mass density (303.15 K, x1 = 0.7375) was 1098 kg/m3, the mass density (303.15 K, x1 = 1) was 1094.9 kg/m3 and the mass density (303.15 K, x2 = 0.0174) was 1095.1 kg/m3. For the same molecule, the mass density (313.15 K, x1 = 0.1988) was 1088.5 kg/m3, the mass density (313.15 K, x1 = 0.4445) was 1096.2 kg/m3 and the mass density (313.15 K, x1 = 0.5602) was 1095.4 kg/m3. It also gave a mass density (313.15 K, x1 = 0.7375) of 1091.9 kg/m3, a mass density (313.15 K, x1 = 1) of 1088.8 kg/m3 and a mass density (313.15 K, x2 = 0.0174) of 1088.9 kg/m3. It also gave a mass density (323.15 K, x1 = 0.105) of 1059 kg/m3, a mass density (323.15 K, x1 = 0.4445) of 1090.1 kg/m3 and a mass density (323.15 K, x1 = 0.5602) of 1089.3 kg/m3. The mass density (323.15 K, x1 = 0.7375) was 1085.9 kg/m3, the mass density (323.15 K, x1 = 1) was 1082.7 kg/m3 and the mass density (323.15 K, x2 = 0.0174) was 1082.8 kg/m3. It also gave a mass density (333.15 K, x1 = 0.105) of 1052.2 kg/m3, a mass density (333.15 K, x1 = 0.1988) of 1074.9 kg/m3 and a mass density (333.15 K, x1 = 0.5602) of 1083.3 kg/m3. The mass density (333.15 K, x1 = 0.7375) was 1079.9 kg/m3, the mass density (343.15 K, x1 = 0.105) was 1045.2 kg/m3 and the mass density (343.15 K, x1 = 0.4445) was 1077.7 kg/m3. For the same molecule, the mass density (343.15 K, x1 = 0.5602) was 1077.2 kg/m3, the mass density (343.15 K, x1 = 0.7375) was 1073.9 kg/m3 and the mass density (343.15 K, x2 = 0.0174) was 1070.8 kg/m3.
